{"sequences": {"note": "By UniProt entry, the sequences of proteins in these tests, tags left out. Where a name states a change or a piece, a line headed by the entry shows the natural chain unless it says otherwise.", "UniProt Q9UNE7": "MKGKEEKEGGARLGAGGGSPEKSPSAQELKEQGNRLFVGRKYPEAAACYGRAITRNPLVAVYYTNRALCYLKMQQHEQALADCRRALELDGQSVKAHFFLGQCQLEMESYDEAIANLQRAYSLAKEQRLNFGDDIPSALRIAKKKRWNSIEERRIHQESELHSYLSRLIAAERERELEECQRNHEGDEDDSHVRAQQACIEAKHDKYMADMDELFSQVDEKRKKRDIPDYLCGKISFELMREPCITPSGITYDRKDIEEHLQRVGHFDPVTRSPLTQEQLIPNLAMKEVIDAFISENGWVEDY", "UniProt Q01860": "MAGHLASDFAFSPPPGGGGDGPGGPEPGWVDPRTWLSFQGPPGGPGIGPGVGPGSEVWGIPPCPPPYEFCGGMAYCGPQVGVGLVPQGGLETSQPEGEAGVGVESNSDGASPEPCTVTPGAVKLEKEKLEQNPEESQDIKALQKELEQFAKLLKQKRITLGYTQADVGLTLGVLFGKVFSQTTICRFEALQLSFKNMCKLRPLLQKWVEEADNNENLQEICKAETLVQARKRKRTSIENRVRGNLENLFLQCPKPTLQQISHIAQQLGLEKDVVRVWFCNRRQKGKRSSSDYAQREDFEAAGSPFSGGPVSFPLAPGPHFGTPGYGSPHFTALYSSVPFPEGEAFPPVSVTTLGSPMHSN"}, "source": "paper PMC6180041", "key": {"FLAG-CHIP H260Q (HEK293)": {"target": "FLAG-CHIP H260Q (HEK293) (UniProt Q9UNE7)", "test": "co-IP; HEK293 cells cotransfected with FLAG-CHIP (WT, K30A or H260Q) and OCT4 expression vector for 40 h, then 20 uM MG132 for 8 h; immunoprecipitation from lysate"}, "FLAG-CHIP K30A (HEK293)": {"target": "FLAG-CHIP K30A (HEK293) (UniProt Q9UNE7)", "test": "co-IP; HEK293 cells cotransfected with FLAG-CHIP (WT, K30A or H260Q) and OCT4 expression vector for 40 h, then 20 uM MG132 for 8 h; immunoprecipitation from lysate"}, "WT FLAG-CHIP (HEK293)": {"target": "WT FLAG-CHIP (HEK293) (UniProt Q9UNE7)", "test": "co-IP; HEK293 cells cotransfected with FLAG-CHIP (WT, K30A or H260Q) and OCT4 expression vector for 40 h, then 20 uM MG132 for 8 h; immunoprecipitation from lysate"}, "[1]": {"target": "carboxy terminus of HSP70-interacting protein (CHIP) in MDA-MB-231 cells (human (in MDA-MB-231 cells; endogenous or transfected not stated)) (UniProt Q9UNE7)", "test": "co-IP; immunoprecipitation from MDA-MB-231 cell lysate; precipitating antibody not stated for this panel"}, "[2]": {"target": "CHIP in MCF7_OCT4KD cells (UniProt Q9UNE7)", "test": "co-IP; MCF7_OCT4KD cells transfected with the indicated vectors for 40 h, then 20 uM MG132 for 8 h; immunoprecipitation from lysate"}}, "note": "No constants are given. Whether binding was seen depends on the method and setting. In cells and extracts the contact can be indirect. Some binding calls cover weakened binding; strength is not graded here."}
{"substance": "OCT4 (HEK293, transfected) (from UniProt Q01860 1-360)", "values": [{"measurement": "binding", "setting": "FLAG-CHIP H260Q (HEK293)", "result": "binds"}, {"measurement": "binding", "setting": "FLAG-CHIP K30A (HEK293)", "result": "no binding"}, {"measurement": "binding", "setting": "WT FLAG-CHIP (HEK293)", "result": "binds"}]}
{"substance": "OCT4 in MDA-MB-231 cells (from UniProt Q01860 1-360)", "values": [{"measurement": "binding", "setting": "[1]", "result": "binds"}]}
{"substance": "OCT4_K284R (MCF7_OCT4KD, transfected) (from UniProt Q01860 1-360)", "values": [{"measurement": "binding", "setting": "[2]", "result": "binds"}]}
{"substance": "WT OCT4 (MCF7_OCT4KD, transfected) (from UniProt Q01860 1-360)", "values": [{"measurement": "binding", "setting": "[2]", "result": "binds"}]}
